From PubChem BioAssay AID1963576 (National Center for Advancing Translational Sciences (NCATS), 2024)
Among all 46,000 compounds or so, about 60 (0.1%) were called active. Roughly 3% stayed inconclusive and do not appear here. Calls come from the whole dose curve; as a rule, active = well fitted inhibition curve with a large enough effect; inconclusive = small, poorly fitted or top-dose-only effect; inactive = no such curve, though single readings can be large or run the other way. The list shows a part of the results.

experiment: Primary qHTS assay for Inhibitors of ovarian cancer metastasis using an organotypic tumor microenvironment (TME) model.; note: nearly all actives have a fitted effect of over 65% in size;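 for activity change, negative = inhibition: plate controls were DMSO wells for no effect and tomatine positive control wells for full effect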; conditions: SKOV3ip1-GFP adhesion/invasion on 3D omental model, fluorescence; series mostly up to 45.8 µM; activity change, negative = inhibition: at the top concentration
Procedure, shortened: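 Primary human omental fibroblast/mesothelial 3D culture pre-formed 48 h. SKOV3ip1-GFP cells added with compounds (0.36-46 umol/L), incubated 2 h RT/16 h 37 C, fixed; GFP cells quantified at 488/509 nm.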

Row | SMILES | activity change, negative = inhibition | outcome
1 | CCc1c(C)nc2nncn2c1NCc1ccc(Cl)cc1 | inactive: 18.6% | 
2 | Cc1ccc(NC(=O)Cn2nc(Cc3ccncc3)c3ccccc3c2=O)c(Cl)c1 | inactive: 8.26% | 
3 | Fc1ccccc1N1CCN(c2nccn3nc(-c4ccc(Br)cc4)cc23)CC1 |  | inactive
4 | COc1cc(CNCCSc2nnnn2C)cc(Cl)c1OCc1ccccc1 |  | inactive
5 | COc1ccc(CNC(=O)CS(=O)Cc2nc(-c3cccc(C)c3)oc2C)cc1 (configuration not stated) | inactive: 4.17% | 
6 | Cc1ccccc1NC(=O)c1oc2c(c1C)-c1nn(Cc3cccc(Cl)c3)cc1CC2 |  | inactive
7 | Cc1nc(SCCOc2ccccc2F)[nH]c(=O)c1Cc1ccccc1 | inactive: -5.12% | 
8 | CCCCNc1nc2ccccc2c2nc(-c3ccccc3)nn12 | inactive: 1.27% | 
9 | CCCCN(CC)CCNC(=O)c1cc2c(=O)n(CC)c3ccccc3c2s1 |  | inactive
10 | Cc1ccc(S(=O)(=O)NCC2CCC(C(=O)NCCCOC(C)C)CC2)cc1 (configuration not stated) | inactive: 6.25% | 
11 | CCOC(=O)COc1ccc(/C=C(\C#N)c2nc3ccc(C)cc3[nH]2)cc1OC | inactive: -7.42% | 
12 | CCCCOc1ccc(C(=O)Nc2cc(-c3ccc(C)cc3)no2)cc1 | inactive: 10.3% | 
13 | CCOC(=O)c1sc(N2C(=O)c3oc4ccccc4c(=O)c3C2c2ccc(C(C)(C)C)cc2)nc1C (configuration not stated) | inactive: 6.97% | 
14 | Cc1ccccc1CNC(=O)Cn1c(C)c2cnn(-c3ccccc3)c(=O)c2c1C | inactive: 12.8% | 
15 | Cc1ccc2c(c1)-c1onc(C(=O)N(C)c3cccc(C(F)(F)F)c3)c1CO2 | inactive: 7.42% | 
16 | CCc1nc2ccc(C(=O)NCc3ccc(OC)c(OC)c3)cc2nc1CC | inactive: -0.279% | 
17 | Cc1cccc(NC(=O)CSc2nc(-c3cccc(C)c3)nc3c2Cc2c(CO)cnc(C)c2O3)c1 | inactive: -3.9% | 
18 | CCOc1ccc(S(=O)(=O)Nc2cccc(-c3ccc(N4CCCC4)nn3)c2)cc1 |  | inactive
19 | CC1(C)Cc2c(c(N3CCOCC3)nc3sc(C(=O)Nc4ccc(Cl)cc4)c(N)c23)CO1 | inactive: -1.7% | 
20 | Cc1ccc2c(CC(=O)Nc3cccc(C(F)(F)F)c3)coc2c1 | inactive: -10.6% | 
21 | Cc1ccc(CNC(=O)c2ccc3c(c2)CCN3S(=O)(=O)c2ccccc2)cc1 | inactive: 0.882% | 
22 | Cc1oc2ncn(CC(C)C)c(=O)c2c1C(=O)NCCc1ccc(Cl)cc1 | inactive: 7.68% | 
23 | CCC1CCCCN1Cc1c(O)ccc2c(=O)c(Oc3ccccc3Cl)c(C(F)(F)F)oc12 (configuration not stated) | inactive: -5.05% | 
24 | Cc1cccn2c3c(c(=O)nc12)C(c1cccc(F)c1)CC(=O)N3 (configuration not stated) | inactive: 11.8% | 

Row | SMILES | activity change, negative = inhibition | outcome
25 | CCc1ccc(NC(=O)Cn2ccn(-c3ccc(OC)cc3)c(=O)c2=O)cc1 | inactive: -7.9% | 
26 | Cc1ccc(N(C)C(=O)CC(C)S(=O)(=O)c2ccc3c(c2)NC(=O)CO3)cc1 (configuration not stated) | inactive: -7.58% | 
27 | CC(=O)c1ccc(S(=O)(=O)Nc2ccc(-c3ccc(N4CCCCC4)nn3)cc2)cc1 | inactive: 5.16% | 
28 | COc1ccc(Cn2c(C(=O)O)c(CNC3CCCC3)c3ccc(C)cc32)cc1 | inactive: 7.75% | 
29 | COc1ccc(CCNC(=O)c2csc3c2CCCCC3)c(OC)c1 |  | inactive
30 | CCC(=O)N1c2ccccc2CC1C(=O)N1CCN(c2cccc(OC)c2)CC1 (configuration not stated) | inactive: 3.62% | 
31 | CCOc1ccc(OCC)c(NS(=O)(=O)c2c(C)[nH]c(=O)[nH]c2=O)c1 | inactive: -4.73% | 
32 | O=C(Cn1cnc2nc3c(cc2c1=O)CCCC3)N1CCN(c2cccc(C(F)(F)F)c2)CC1 | inactive: 4.52% | 
33 | N[C@@H](Cc1c[nH]c2ccc(O)cc12)C(=O)O | inactive: 1.56% | 
34 | Cc1ccc(C)c(NC(=O)CSc2c(C)cnc3c2c(=O)n(C)c(=O)n3C)c1 | inactive: 12.8% | 
35 | CCOc1ccc(NC(=O)CSc2nc(-c3cccc(Cl)c3)nc3c2Cc2c(CO)cnc(C)c2O3)cc1 | inactive: 14.9% | 
36 | Cc1ccc(C)c(NC(=O)Cn2ncc3c([nH]c4ccccc43)c2=O)c1 |  | inactive
37 | COC(=O)c1cc2oc(C)cc2n1Cc1cc(C)ccc1C | inactive: 13.8% | 
38 | Cc1cccc(NC(=O)CC2Nc3cccc4cccc(c34)NC2=O)c1 (configuration not stated) | inactive: -0.83% | 
39 | COc1cccc(NC(=O)CCc2nc(-c3ccc(C(C)(C)C)cc3)no2)c1 | inactive: -8.23% | 
40 | CN(c1ncnc2c1c(-c1ccccc1)cn2-c1cccc(Cl)c1)C1CCCCC1 | inactive: 5.09% | 
41 | Cc1ccc(-c2nnn3c2nc(NCCc2ccccc2)c2ccccc23)cc1 | inactive: 13.2% | 
42 | Cc1cc2c(cc1S(=O)(=O)CCC(=O)N(C)C1CCCCC1)OCC(=O)N2 | inactive: 11.2% | 
43 | COCCN(Cc1ccco1)C(=O)Cn1ncc2c([nH]c3ccccc32)c1=O | inactive: -9.6% | 
44 | CCCCN1C(=O)CN(C2CCCCCC2)C(=O)C1c1ccc(OCC)c(OC)c1 (configuration not stated) | inactive: -8.05% | 
45 | Cc1ccc(C)c(C(=O)CSc2nc(-c3ccccc3)nc3c2CCCC3)c1 | inactive: -15.9% | 
46 | Cc1c(Cl)cccc1NC(=O)N1CCC(CN2CCOCC2)CC1 | inactive: 9.36% | 
47 | Cc1cccc(-n2c(=O)c3c(c4cc(C)ccc4n3C)n(C)c2=O)c1 | inactive: -0.459% | 
